# Experimental data published in the supplement of paper PMC11417369.
# ± gives the standard deviation of the averaged measurements. Some of the results follow.
# System: PfAP2-EXP AP2 domain (GST-tagged)
# Test: gcPBM binding intensity (ln(normalized median fluorescence intensity)); higher = stronger DNA binding
# How it was run: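 Alexa488 anti-GST antibody, scanned at 488 nm, detected GST-tagged P. falciparum DNA-binding domains that had been expressed in E. coli and incubated for 1 h on an Agilent 4 × 180k array. The array carried primer-extended double-stranded 36-bp intergenic genomic probes and negative controls. Binding intensity is the highest Masliner-normalised natural-log median intensity across replicate spots of either orientation of each probe.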
row,Sequence,gcPBM binding intensity (ln)
1,TATAATCATATATACACACACATATATATATATATA [CACACA_site2168],10.2 ± 0.43
2,TCTTCCGCTTTATGGAGTACTATGGTAGCCTTTCCT [XGTACX_site2958],8.64 ± 0.42
3,GACCTACAAAAAGGCACACATATACGCATACATACA [CACACA_site2179],8.59 ± 0.4
4,AAAAAAAAAAGACACACACACACACGGAGATATATA [CACACA_site6216],8.85 ± 0.52
5,TTTAATACTTTTTTCTGTACACACTTGATTTACTAT [XGTACX_site5925],8.85 ± 0.38
6,AATTTTAATTATATCACACATAATATATACCAAAAA [CACACA_site6011],8.51 ± 0.38
7,TACATATTTTTATATACACACAATAATTACTATAAA [CACACA_site6879],8.29 ± 0.42
8,TAGGTACATAAATTGGTGCAAAGTGTACATATATAT,9.255 ± 0.064
9,AAAATACATAAACGTTCACACATTGAAGATCACAAG [CACACA_site5347],8.61 ± 0.45
10,AACATATACACGAACACACACACATATAAATAAATA [CACACA_site6380],8.74 ± 0.56
11,AAAAATACAATTTTCTTGCACTTTGTTGCATTGTAA,8.54 ± 0.16
12,CAAAATATAAAAACATGTACATAAATATTAACGAAT [XGTACX_site2380],9.08 ± 0.38
13,TCATCCACATATTGTAGTACAAGATAATTGTTTATT [XGTACX_site1634],8.76 ± 0.13
14,ATATGTTTATTAAATGCATGTCAAGACTTAAGATAT [TGCATGCA_site329],8.66 ± 0.47
15,TTTATTTATAGACACACACACAAAAAAAAAAAAAAA [CACACA_site7280],8.24 ± 0.58
16,TTGTATATATATGGAAAAATATATATATATATATAT [GTGCAC_negctrl_site591],10.3 ± 0.29
17,TTTTTTTTTTTTTTTATAAAAGATAATTTTTTTTTA [CACACA_negctrl_site133],8.07 ± 0.45
18,CATTTATATTATAAATGTACAAAGTTCGTTTGTTCC [XGTACX_site1305],8.49 ± 0.45
19,TATAAATTTAAAATGACACACACTAATATTATTTAA [CACACA_site8334],8.53 ± 0.44
20,TGTCTTTAAATTTCTCAACACACAGTTATAAAAAAT [CACACA_site8930],8.44 ± 0.4
21,GGGTCAAGTAAGCTGTTCCTCTTTTTCTTTCTCACT [GTGCAC_negctrl_site473],9.01 ± 0.52
22,ATACGATTGAAACATTGTACATGAATATAAAAAAAT [XGTACX_site5704],8.88 ± 0.47
23,TTTTTATTATTCTTAAGGATATAACAAAAAAGAAAA [XGTACX_negctrl_site584],8.29 ± 0.38

row,Sequence,gcPBM binding intensity (ln)
1,ATTAATATTATTAGAAGTACTAATAGTAGTATAACT [XGTACX_site1325],8.46 ± 0.35
2,TAAACGTTAGTATGTGTGCACATTAGTAATTTAAAA,8.78 ± 0.071
3,TTCTAAAAAAATAAAATTATCAAGGTTTTTAAACGT [CACACA_negctrl_site308],8.5 ± 0.35
4,TCAAAGCACACATACACACACATATAGATTTATATA [CACACA_site6272],8.54 ± 0.51
5,TAAATAAATATATATTCACACACAAACATATATATA [CACACA_site9332],8.38 ± 0.3
6,TCTTCATAAAAATAAAGTACATTATATATATAAATA [XGTACX_site3775],8.38 ± 0.42
7,GATTATATTATATATTAAATATAAATATGTATTATA [TGCATGCA_negctrl_site66],8.04 ± 0.42
8,GAAATATTTAGACACACACACAAACATATAAATATA [CACACA_site6980],8.76 ± 0.57
9,ATGTTGTGTATATATACACACATACATATATATATA [CACACA_site8461],9.97 ± 0.25
10,AATGAGAAGGACTGCACACTAAAATGGAAGGAGAAA [CACACA_site1575],8.99 ± 0.44
11,AAAAAAAATTAAAATAAATTAAAAAGTAATTATATA [GTGCAC_negctrl_site615],8.1 ± 0.44
12,AATGGAAATGTAAAATGTACAGGACGCACACACATA [XGTACX_site7788],8.62 ± 0.4
13,GAAAAAATTTTATGGTGTACTTTATTTATTTATATA [XGTACX_site6323],8.6 ± 0.35
14,TTATTACATGTTACTTAACACACATCTGGTGAAATA [CACACA_site7939],8.63 ± 0.38
15,AAAATATAGTAATATATATATGTATATTATTTGTGG [CACACA_negctrl_site1590],8.67 ± 0.55
16,GGAAAGACAGTTCACAGTACCCAGTAAACTCTACGG [XGTACX_site2557],8.36 ± 0.42
17,TTTATATATGTAAATGCACACATATGTGTATATACT [CACACA_site8493],8.72 ± 0.25
18,TACCATGTTCAAATTACACACATATAATGTAATATA [CACACA_site5150],8.37 ± 0.32
19,ATTAAGTTCAAATGTAGTACGTGTAAAAAAAAAAAA [XGTACX_site1578],8.73 ± 0.4
20,ATATATAATATTTTTATTTTTATTTTTTTTTTATGA [TGCATGCA_negctrl_site577],8.02 ± 0.32
21,TATAGGTATATATTATGTACTTATAATTATATAGAT [XGTACX_site1912],8.52 ± 0.35
22,AAAATAAATAAATAAATAAATATATATATATATATA [XGTACX_negctrl_site345],10.1 ± 0.42
23,TAATCTTTCGTACATGTACACACAGAAAAAAAAAAA [CACACA_site8798],8.62 ± 0.34

row,Sequence,gcPBM binding intensity (ln)
1,TGCATGCATTATCATAGTACATATAATGTTGTATAA [XGTACX_site2775],10.1 ± 0.18
2,TATTAAGTATTTTACGTACACACTTATAAATGTACA [CACACA_site3885],8.46 ± 0.35
3,ATTATTAAGTTTCACAAGAACATTGTTAACAATTTT [CACACA_negctrl_site1128],8.46 ± 0.38
4,TATAAGGTGTCCTATACACACTCCAATAGATATATA [CACACA_site7066],8.37 ± 0.39
5,AATTTATATTTTCGTAGTACGTATTTTATTCTTTTG [XGTACX_site4162],8.78 ± 0.39
6,ATTACATGCAATATATGTACGTAATATATATATATA [XGTACX_site2300],9.91 ± 0.38
7,CTGAACCCGTTATGGTGTACATAAAATAAGACACAG [XGTACX_site3484],8.67 ± 0.26
8,AAAGACGCAAAATTGGTGCGCTGCTTTTAGCATTTT,8.61 ± 0.25
9,AAAAAAAAAAAGTACACACATACATATAAATATATA [CACACA_site1809],8.43 ± 0.47
10,ATTTATATCCTTAAACGTACATTGTATTGTATTTTA [XGTACX_site6080],8.71 ± 0.35
11,ACAGAATATTTAATTCAACACACATACATATTTATT [CACACA_site8734],8.22 ± 0.39
12,AATAATCATGATCAAAGTACTTATGAATACCAAAAA [XGTACX_site2572],8.8 ± 0.37
13,GCATCCCTTTTTATGTGTACATACAAAGGCAATTAC [XGTACX_site6977],8.86 ± 0.33
14,TATTGTTTTAAAGAGACATGCAATATATATTATTCC [TGCATGCA_site752],8.76 ± 0.38
15,AAAATATAAATCTAAGCATGCAAAAAAAATTTATAA [TGCATGCA_site1008],9.58 ± 0.2
16,AATAATAATAGTAATATGTACATATATATATATATA [TGCATGCA_negctrl_site542],10.1 ± 0.33
17,TATAAGCAAAAACACACACACATATATATATATATA [CACACA_site3804],10.3 ± 0.28
18,TTTTTATTCGATGATCAAATAGGTATATACAAAAAA [CACACA_negctrl_site1813],8.78 ± 0.45
19,TTATTTAAAAAAAAGTGTACCCATATATTATAAATC [XGTACX_site8374],8.39 ± 0.35
20,TAATATTATAGATAAACACACATACACATGTAAATA [CACACA_site7049],8.82 ± 0.46
21,AAATGAAATTTGTATACACACAAATATATATATATA [CACACA_site836],10.1 ± 0.28
22,TACTTATGTGCATACCTACACACTTACATATATATA [CACACA_site2975],8.9 ± 0.4
23,GATGATGTTTATTTGTGTACATATTAATACTTAATA [XGTACX_site1902],8.8 ± 0.24

row,Sequence,gcPBM binding intensity (ln)
1,AATTATTTACCCTATACACACAAAACCCACTAAAAA [CACACA_site4801],9.02 ± 0.73
2,AAAAAAAGAATGTGAACACACACATTGAATATAATT [CACACA_site8341],8.46 ± 0.52
3,AAGAACAGAACGTACACACACATATATATATATATA [CACACA_site3457],10.2 ± 0.23
4,AATCATATGAAAAATACATGCGCATGGATACCTTTA [TGCATGCA_site224],8.82 ± 0.52
5,TATAAATAAATACATACACACACATACATATATATA [CACACA_site9024],8.71 ± 0.38
6,ATAAAATCAAAATATACACACAAGGGGGAAAATCAA [CACACA_site2809],8.96 ± 0.42
7,ATAGGACATGTATCCAGTACATATTTAAAAAAAATA [XGTACX_site88],8.43 ± 0.33
8,GCATATATCAAATATCGTACATTTTTTAAATTAAAA [XGTACX_site3994],8.42 ± 0.47
9,TTTGTAAGTCTTTGTTGTACTCAATAGAATGAAGAA [XGTACX_site8930],8.77 ± 0.42
10,TTTTCTTTTTTTTATTGTACTTATAAAAATAAATAA [XGTACX_site3498],8.44 ± 0.33
11,TAAAAAAAATAGCATACACACATATATACATATATA [CACACA_site658],8.27 ± 0.35
12,GTCGCCAAAAGGTGTACACATAATGCATTATCATAA [CACACA_site6112],9.05 ± 0.42
13,TGATAACCTAATAATACACACACATGAATATATATA [CACACA_site8226],8.61 ± 0.32
14,ATATTTAGGATTATCTGTACATAATATGTTTAATTA [XGTACX_site3426],8.44 ± 0.4
15,TACACATAATATAATGCATGTGTGATGTATGTTTAA [TGCATGCA_site697],8.65 ± 0.35
16,ATTAAAAAATTATTCACACAAAATAAAAAAATGAAA [CACACA_site4918],8.5 ± 0.51
17,AAAATTATTTTTATGTGTACTTATTTATTATTTATA [XGTACX_site6665],8.55 ± 0.28
18,TTGTATTCCTTTTACAACTACCATGAAGAGAATTTT [CACACA_negctrl_site1286],8.46 ± 0.38
19,AAAAAAAAAAAAAAGGTGCAAATAAATTAACCTTAT,8.71 ± 0.36
20,AAAAAAAACGCACATACACACACACCCATATATATA [CACACA_site9118],8.72 ± 0.3
